Test systems include HCC-1143; HCC-1187; MDA-468; SUM-149.
Holding throughout (experiment): cell viability relative to vehicle (% of vehicle); basal-like triple-negative breast cancer lines; higher = less cytotoxic
Common to all, as to conditions: 10 µM; 72 h

Molecules are shown by their SMILES. This is one part of the list. Repeats are few or missing, and single values can be far off.
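Further: stably firefly luciferase-GFP labeled cells in 96-well plates, viability read as luciferase photon flux after d-luciferin addition, treated wells normalized to vehicle wells, single-dose high-throughput screen.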

On to `CC12CCC3c4ccc(OC(=O)c5ccccc5)cc4CCC3C1CCC2O` (configuration not stated) [Estradiol Benzoate], for which the cell viability in the assay on HCC-1143 amounted to 134; with HCC-1187, 112; with MDA-468, 82.4; with SUM-149 it was 104.

As for `O=S(=O)([O-])CCSSCCS(=O)(=O)[O-].[Na+].[Na+]` [Dimesna], the cell viability was 92.4 in the assay with HCC-1143, 117 in the assay with HCC-1187, 103 in the assay on MDA-468 and 92.9 in the assay with SUM-149.

On to `Cc1ccc(C)c(OCCCC(C)(C)C(=O)O)c1` [Gemfibrozil], for which the cell viability came out at 110 in the assay on HCC-1143, 143 with HCC-1187, 151 with MDA-468 and 142 in the assay with SUM-149.

As for `CC(C)(C)c1cc(NC(=O)Nc2ccc(-c3cn4c(n3)sc3cc(OCCN5CCOCC5)ccc34)cc2)no1` [Quizartinib (AC220)], the cell viability with HCC-1143 stood at 34.4; in the assay on HCC-1187 it was 28.2; in the assay on MDA-468, 54.6; in the assay with SUM-149, 56.1.

Take `CC(C)C(=O)Nc1ccc([N+](=O)[O-])c(C(F)(F)F)c1` [Flutamide]: the cell viability in the assay with HCC-1143 was 82; in the assay with HCC-1187, 93.3; in the assay on MDA-468, 107; in the assay on SUM-149, 119.

Take `CNNCc1ccc(C(=O)NC(C)C)cc1.Cl` [Procarbazine HCl]: the cell viability with HCC-1143 turned out to be 105; with HCC-1187, 85.6; in the assay on MDA-468, 115; in the assay on SUM-149 it was 124.

Consider `CC[C@H](C)[C@@H]1NC(=O)[C@H](Cc2ccc(O)cc2)NC(=O)[C@@H](N)CSSC[C@@H](C(=O)N2CCC[C@H]2C(=O)N[C@@H](CC(C)C)C(=O)NCC(N)=O)NC(=O)[C@H](CC(N)=O)NC(=O)[C@H](CCC(N)=O)NC1=O` [Oxytocin], for which the cell viability with HCC-1143 is 87.3; in the assay with HCC-1187, 86.4; in the assay with MDA-468, 97.4; in the assay on SUM-149, 91.1.

`CC(=O)OCC(=O)C1CCC2C3CCC4=CC(=O)CCC4(C)C3CCC12C` (configuration not stated) [Deoxycorticosterone acetate]: the cell viability in the assay with HCC-1143 stood at 115; in the assay on HCC-1187, 132; in the assay with MDA-468 it was 160; in the assay with SUM-149, 108.

On to `Cc1cnc(C(=O)NCCc2ccc(S(=O)(=O)NC(=O)NC3CCCCC3)cc2)cn1` [Glipizide], for which the cell viability in the assay with HCC-1143 amounted to 83.4; with HCC-1187, 80; in the assay on MDA-468 it was 102; with SUM-149 it was 110.

As for `Cn1cc[nH]c1=S` [Methimazole], the cell viability was 103 with HCC-1143, 132 with HCC-1187, 90.8 in the assay on MDA-468 and 107 with SUM-149.

In the case of `COc1ccc2cc([C@H](C)C(=O)[O-])ccc2c1.[Na+]` [Naproxen Sodium], the cell viability with HCC-1143 stood at 69.8; in the assay on HCC-1187, 84; with MDA-468 it was 111; in the assay on SUM-149, 101.

As for `CCCCS(=O)(=O)NC(Cc1ccc(OCCCCC2CCNCC2)cc1)C(=O)O.Cl.O` (configuration not stated) [Tirofiban hydrochloride monohydrate], the cell viability in the assay on HCC-1143 was 106; in the assay with HCC-1187, 93.4; with MDA-468, 91.4; in the assay with SUM-149, 109.

With `Nc1nc(=O)c2ncn(COCCO)c2[nH]1` [Acyclovir], the cell viability in the assay with HCC-1143 was determined as 81.5; in the assay on HCC-1187, 94.2; in the assay on MDA-468, 121; in the assay with SUM-149, 94.8.

As for `CN(Cc1cc(Br)cc(Br)c1N)C1CCCCC1.Cl` [Bromhexine HCl], the cell viability was found to be 71.6 with HCC-1143, 91.3 in the assay with HCC-1187, 120 in the assay on MDA-468 and 135 in the assay with SUM-149.

For `N#CC1CC2CC2N1C(=O)C(N)C12CC3CC(CC(O)(C3)C1)C2` (configuration not stated) [Saxagliptin], the cell viability in the assay with HCC-1143 worked out at 88.2; with HCC-1187, 95.8; with MDA-468, 110; in the assay with SUM-149, 93.3.

Regarding `Cl.Clc1ccccc1CN1CCc2sccc2C1` [Ticlopidine HCl], the cell viability came to 76.1 in the assay on HCC-1143, 72 in the assay with HCC-1187, 101 with MDA-468 and 87.9 in the assay on SUM-149.

As for `C=CC[C@@H]1/C=C(\C)C[C@H](C)C[C@H](OC)[C@H]2O[C@@](O)(C(=O)C(=O)N3CCCC[C@H]3C(=O)O[C@H](/C(C)=C/[C@@H]3CC[C@@H](O)[C@H](OC)C3)[C@H](C)[C@@H](O)CC1=O)[C@H](C)C[C@@H]2OC` [Tacrolimus (FK506)], the cell viability in the assay on HCC-1143 was determined as 83.9; with HCC-1187, 88.8; with MDA-468, 108; with SUM-149, 131.

Take `CNCCC(Oc1cccc2ccccc12)c1cccs1.Cl` (configuration not stated) [Duloxetine HCl]: the cell viability was 91.7 with HCC-1143, 42.7 in the assay on HCC-1187, 76.4 in the assay with MDA-468 and 58.1 in the assay with SUM-149.

`CC1=C(C(=O)O)N2C(=O)C(NC(=O)C(N)c3ccccc3)C2SC1` (configuration not stated) [Cephalexin]: the cell viability turned out to be 65.4 in the assay on HCC-1143, 89.8 in the assay on HCC-1187, 98.7 in the assay with MDA-468 and 67.6 in the assay on SUM-149.

Regarding `Cc1nnc(SCC2=C(C(=O)[O-])N3C(=O)[C@@H](NC(=O)Cn4cnnn4)[C@H]3SC2)s1.[Na+]` [Cefazolin (sodium salt)], the cell viability in the assay on HCC-1143 came to 109; in the assay on HCC-1187 it was 106; in the assay with MDA-468, 108; in the assay with SUM-149 it was 82.2.

In the case of `CC(=O)N(CC(O)CO)c1c(I)c(C(=O)NCC(O)CO)c(I)c(C(=O)NCC(O)CO)c1I` (configuration not stated) [Iohexol], the cell viability in the assay with HCC-1143 was found to be 98.8; in the assay on HCC-1187 it was 95.7; in the assay with MDA-468 it was 122; with SUM-149, 107.

Consider `Cc1ccc2c(Cl)cc(Cl)c(O)c2n1` [Chlorquinaldol], for which the cell viability in the assay on HCC-1143 was 68.9; in the assay on HCC-1187, 89.3; in the assay on MDA-468, 95.6; with SUM-149 it was 84.5.

For `Nc1ccn(C2OC(CO)C(O)C2(F)F)c(=O)n1` (configuration not stated) [Gemcitabine], the cell viability was found to be 73.2 in the assay on HCC-1143, 53.8 in the assay on HCC-1187, 50.5 with MDA-468 and 136 with SUM-149.

Consider `CO[C@H]1C[C@@H]2CC[C@@H](C)[C@@](O)(O2)C(=O)C(=O)N2CCCC[C@H]2C(=O)O[C@H]([C@H](C)C[C@@H]2CC[C@@H](OC(=O)C(C)(CO)CO)[C@H](OC)C2)CC(=O)[C@H](C)/C=C(\C)[C@@H](O)[C@@H](OC)C(=O)[C@H](C)C[C@H](C)/C=C/C=C/C=C/1C` [Temsirolimus], for which the cell viability in the assay on HCC-1143 was determined as 98.6; in the assay on HCC-1187, 113; in the assay on MDA-468, 78.8; with SUM-149 it was 74.7.

`NCCC(O)C(=O)NC1CC(N)C(OC2OC(CN)C(O)C(O)C2O)C(O)C1OC1OC(CO)C(O)C(N)C1O` (configuration not stated) [Amikacin]: the cell viability worked out at 74.6 with HCC-1143, 72.5 with HCC-1187, 121 in the assay with MDA-468 and 127 with SUM-149.

Turning to `CCOC(=O)[C@H](CCc1ccccc1)N[C@@H](C)C(=O)N1[C@H](C(=O)O)C[C@H]2CCCC[C@@H]21` [Trandolapril], the cell viability with HCC-1143 was determined as 137; in the assay with HCC-1187, 94.4; in the assay on MDA-468 it was 84.8; in the assay with SUM-149 it was 115.

As to `CC#CC1(O)CCC2C3CCC4=CC(=O)CCC4=C3C(c3ccc(N(C)C)cc3)CC21C` (configuration not stated) [Mifepristone], the cell viability stood at 54.8 in the assay with HCC-1143, 96.6 in the assay with HCC-1187, 55.1 in the assay with MDA-468 and 101 in the assay on SUM-149.

As to `COc1ccc2nc(S(=O)Cc3ncc(C)c(OC)c3C)[nH]c2c1` (configuration not stated) [Omeprazole], the cell viability in the assay with HCC-1143 amounted to 114; in the assay with HCC-1187, 93.2; in the assay with MDA-468, 57; in the assay on SUM-149 it was 115.

For the molecule `CN(C)C(CCOc1cccc2ccccc12)c1ccccc1.Cl` (configuration not stated) [Dapoxetine HCl], the cell viability in the assay on HCC-1143 worked out at 74; in the assay on HCC-1187 it was 97.7; in the assay with MDA-468 it was 116; in the assay on SUM-149, 80.8.

On to `COC(=O)C1=C(C)NC(C)=C(C(=O)OC2CCCN(Cc3ccccc3)C2)C1c1cccc([N+](=O)[O-])c1.Cl` (configuration not stated) [Benidipine HCl], for which the cell viability amounted to 86 in the assay with HCC-1143, 85.9 in the assay with HCC-1187, 92.3 in the assay on MDA-468 and 105 with SUM-149.

With `CCOC(=O)NC1CCC2C(C1)CC1C(=O)OC(C)C1C2C=Cc1ccc(-c2cccc(F)c2)cn1` (configuration not stated) [Vorapaxar], the cell viability with HCC-1143 worked out at 80.7; in the assay with HCC-1187 it was 83.8; with MDA-468, 114; in the assay on SUM-149, 107.

On to `CC(C)C(=O)OCC(=O)[C@@]12O[C@H](C3CCCCC3)O[C@@H]1C[C@H]1[C@@H]3CCC4=CC(=O)C=C[C@]4(C)[C@H]3[C@@H](O)C[C@@]12C` [Ciclesonide], for which the cell viability with HCC-1143 came out at 67.2; with HCC-1187, 103; with MDA-468 it was 33.6; in the assay on SUM-149, 115.

On to `O=c1oc2cc(O)ccc2s1` [Tioxolone], for which the cell viability came to 123 in the assay on HCC-1143, 74.8 with HCC-1187, 111 in the assay with MDA-468 and 136 with SUM-149.
